Experimental data reported in a collection of fitness landscapes (doi:10.1126/science.1257360).
The other results are listed elsewhere or left out.

B1: PhoQ; a variant is named by its letters at X, in order, P23837 (parent)
chain: MKKLLRLFFPLSLRVRFLLATAAVVLVLSLAYGMVALIGYSVSFDKTTFRLLRGESNLFYTLAKWENNKLHVELPENIDKQSPTMTLIYDENGQLLWAQRDVPWLMKMIQPDWLKSNGFHEIEADVNDTSLLLSGDHSIQQQLQEVREDDDDAEMTHSVAVNVYPATSRMPKLTIVVVDTIPVELKSSYMVWSWFIYVLSANLLLVIPLLWVAAWWSLRPIEALAKEVRELEEHNRELLNPATTRELTSLVRNLNRLLKSERERYDKYRTTLTDLTHSLKTPLXXLQXXLRSLRSEKMSVSDAEPVMLEQISRISQQIGYYLHRASMRGGTLLSRELHPVAPLLDNLTSALNKVYQRKGVNISLDISPEISFVGEQNDFVEVMGNVLDNACKYCLEFVEISARQTDEHLYIVVEDDGPGIPLSKREVIFDRGQRVDTLRPGQGVGLAVAREITEQYEGKIVAGESMLGGARMEVIFGRQHSAPKDE

Variants of: B1
Experiment: enrichment ratio after two sorts for PhoP signalling (ratio (wild type AVST 3.29)); higher = more functional
Conditions: with PhoP (E. coli)

Variant	enrichment ratio
ECIP	≤ 0.25
NNMC	≤ 0.25
WGIW	≤ 0.25
DEWK	≤ 0.25
HPAD	≤ 0.25
VPQI	≤ 0.25
AYND	≤ 0.25
SFCQ	2.09
EGCL	≤ 0.25
KGSW	≤ 0.25
MGRG	≤ 0.25
SRCP	≤ 0.25
WRRI	≤ 0.25
FPWM	≤ 0.25
SGSQ	12.9
ICCF	≤ 0.25
RAIW	≤ 0.25
WQNF	4.13
WILS	≤ 0.25
NDDF	≤ 0.25
TNSL	12.2
YGLM	13
ICFG	≤ 0.25
RQSN	≤ 0.25

Variant	enrichment ratio
YQFQ	≤ 0.25
IQPY	≤ 0.25
STQG	2.47
FFVR	≤ 0.25
FIAY	≤ 0.25
FPEF	≤ 0.25
SISL	10.9
FWHS	≤ 0.25
IPPE	≤ 0.25
SDHE	0.709
QIDC	≤ 0.25
YLQF	≤ 0.25
PLAW	≤ 0.25
GNAD	≤ 0.25
RNMH	≤ 0.25
EFVF	≤ 0.25
VAGN	≤ 0.25
INDH	≤ 0.25
SVDQ	≤ 0.25
LEMF	≤ 0.25
MSQY	1.53
NKWE	≤ 0.25
GNQY	≤ 0.25
PHHK	≤ 0.25

Variant	enrichment ratio
VFTN	0.47
WSWP	≤ 0.25
FYRA	≤ 0.25
SGRP	≤ 0.25
AWWI	≤ 0.25
VKFE	≤ 0.25
DASG	≤ 0.25
SEKK	≤ 0.25
TQVL	7.43
MDLE	≤ 0.25
IFKS	≤ 0.25
PSAP	≤ 0.25
IEPS	≤ 0.25
SDKT	≤ 0.25
GWHA	≤ 0.25
VQGQ	≤ 0.25
SGPF	≤ 0.25
TKNG	2.72
HVGD	≤ 0.25
ICQF	≤ 0.25
TIRY	≤ 0.25
MTDE	≤ 0.25
NKYN	≤ 0.25
ESRG	≤ 0.25

Variant	enrichment ratio
YCTK	≤ 0.25
AKIA	2.13
LNDH	≤ 0.25
GWIY	≤ 0.25
KTWI	≤ 0.25
PPRC	≤ 0.25
LWAV	≤ 0.25
RIQN	≤ 0.25
IFTC	≤ 0.25
PRLL	≤ 0.25
HIQM	≤ 0.25
FKLM	9.2
MYGI	≤ 0.25
QEIN	≤ 0.25
VQAS	≤ 0.25
PYFH	≤ 0.25
FQVA	≤ 0.25
MISD	≤ 0.25
PTSH	≤ 0.25
HHVI	≤ 0.25
KYPP	≤ 0.25
VRMA	≤ 0.25
KEDS	≤ 0.25
DNGD	≤ 0.25

Variant	enrichment ratio
TESA	11.7
NWRW	≤ 0.25
PPGV	≤ 0.25
RLFD	≤ 0.25
VTLP	≤ 0.25
LCEW	≤ 0.25
RLFI	≤ 0.25
WWAP	≤ 0.25
YIWE	≤ 0.25
SYIN	≤ 0.25
RLDS	≤ 0.25
LWGC	≤ 0.25
FAID	≤ 0.25
DYWP	≤ 0.25
LRGR	≤ 0.25
LWDV	≤ 0.25
FCSV	≤ 0.25
LPTA	≤ 0.25
MLPE	≤ 0.25
RHEI	≤ 0.25
FALL	16.3
PMQA	≤ 0.25
RMRQ	≤ 0.25
EPRN	≤ 0.25

Variant	enrichment ratio
WKGT	≤ 0.25
CVSH	≤ 0.25
IRYE	≤ 0.25
GFLQ	≤ 0.25
DTPK	≤ 0.25
HTTN	≤ 0.25
LWNR	≤ 0.25
GGRF	≤ 0.25
DYHF	≤ 0.25
FPIC	≤ 0.25
DFLN	≤ 0.25
GLKA	≤ 0.25
HRLN	≤ 0.25
QPGV	≤ 0.25
QQFR	≤ 0.25
MCPA	≤ 0.25
ASGV	7.94
TNTY	≤ 0.25
KKGI	≤ 0.25
PLRF	≤ 0.25
EMMG	≤ 0.25
LERT	≤ 0.25
YPFK	≤ 0.25
KGPR	≤ 0.25

Variant	enrichment ratio
LCAN	≤ 0.25
RDIC	≤ 0.25
RACI	≤ 0.25
QLLE	≤ 0.25
TNEW	≤ 0.25
TRTS	≤ 0.25
MYPW	≤ 0.25
LPYP	≤ 0.25
FRTM	≤ 0.25
VWKF	≤ 0.25
WGGN	≤ 0.25
LRNI	≤ 0.25
VQAC	≤ 0.25
WVWN	≤ 0.25
LSNV	≤ 0.25
KCHY	≤ 0.25
PRPW	≤ 0.25
GDSF	≤ 0.25
FTYV	≤ 0.25
IGIV	≤ 0.25
VFEN	≤ 0.25
VPWS	≤ 0.25
WLFC	≤ 0.25
MCLI	4.17

Variant	enrichment ratio
PSIV	≤ 0.25
STRG	≤ 0.25
SYNR	≤ 0.25
IDVH	≤ 0.25
MQDA	≤ 0.25
RDAT	≤ 0.25
SWCI	≤ 0.25
ENHK	≤ 0.25
NGNY	≤ 0.25
KKQM	≤ 0.25
YCGP	≤ 0.25
DDVT	≤ 0.25
SNSG	10.7
MVYF	2.36
IHFH	≤ 0.25
VVLT	≤ 0.25
SECE	15.4
NLAS	≤ 0.25
YWCT	≤ 0.25
SYRM	≤ 0.25
RFMW	≤ 0.25
NPSP	≤ 0.25
IVCN	≤ 0.25
RTRE	≤ 0.25

Variant	enrichment ratio
DNAL	≤ 0.25
HCKY	≤ 0.25
HVCL	≤ 0.25
TCDM	≤ 0.25
EVCW	≤ 0.25
GVRQ	≤ 0.25
KDAF	≤ 0.25
IMED	≤ 0.25
NAMR	≤ 0.25
RIDI	≤ 0.25
YVAF	0.382
LDPQ	≤ 0.25
FVDK	≤ 0.25
PSFM	≤ 0.25
VHID	≤ 0.25
RRFK	≤ 0.25
TPMN	≤ 0.25
LDMR	≤ 0.25
PLPP	≤ 0.25
PTNI	≤ 0.25
VADY	≤ 0.25
AYWW	≤ 0.25
RHPF	≤ 0.25
KDQQ	≤ 0.25

Variant	enrichment ratio
GQGK	≤ 0.25
AMFN	≤ 0.25
HEKI	≤ 0.25
VFAP	≤ 0.25
LIHS	≤ 0.25
NNWH	≤ 0.25
FDRH	0.281
TETG	35.8
LTPC	≤ 0.25
YHFH	≤ 0.25
RGIE	≤ 0.25
AGQY	≤ 0.25
ISRS	≤ 0.25
LHRG	≤ 0.25
PCHV	≤ 0.25
NALE	≤ 0.25
GIPP	≤ 0.25
PMGL	≤ 0.25
ATMR	≤ 0.25
KATV	≤ 0.25
MHWT	≤ 0.25
GFED	≤ 0.25
ICFN	≤ 0.25
TNDP	≤ 0.25

Variant	enrichment ratio
VSEL	≤ 0.25
ELSW	≤ 0.25
CLLQ	≤ 0.25
TRAR	≤ 0.25
QVSH	2.04
WYWD	≤ 0.25
HTNV	≤ 0.25
VMKV	≤ 0.25
NDIL	≤ 0.25
NTEM	≤ 0.25
RVIG	≤ 0.25
ISWD	≤ 0.25
TEQG	5.86
HYGP	≤ 0.25
MQQL	≤ 0.25
TPLN	≤ 0.25
YSVD	≤ 0.25
REFM	≤ 0.25
LRKC	≤ 0.25
LEIE	≤ 0.25
MQQI	≤ 0.25
VMDL	≤ 0.25
QMPR	≤ 0.25
QLEA	≤ 0.25

Variant	enrichment ratio
RGLV	≤ 0.25
IQHF	≤ 0.25
GEKV	≤ 0.25
YTYF	≤ 0.25
SMAD	4.68
HTYF	≤ 0.25
YMIK	≤ 0.25
PSNM	≤ 0.25
IQDK	≤ 0.25
HAYM	≤ 0.25
QVMR	≤ 0.25
QQFH	≤ 0.25
FLDV	7.24
ILKH	≤ 0.25
WRVW	≤ 0.25
GKLT	≤ 0.25
MYES	≤ 0.25
MTLR	≤ 0.25
ARAL	1.05
TFRM	≤ 0.25
IWKF	≤ 0.25
LCDE	≤ 0.25
HFVS	≤ 0.25
TVGW	3.79

Variant	enrichment ratio
HFCH	≤ 0.25
MINA	≤ 0.25
VIFD	≤ 0.25
VTFE	≤ 0.25
MRDI	≤ 0.25
DGHM	≤ 0.25
MNNN	≤ 0.25
PYWF	≤ 0.25
GGFP	≤ 0.25
GNEQ	≤ 0.25
TLRF	≤ 0.25
AHLP	≤ 0.25
YEMH	≤ 0.25
RYEL	≤ 0.25
ESLT	≤ 0.25
YLMF	≤ 0.25
IQWQ	≤ 0.25
TETI	17.3
